From US20080033007A1, “Substituted Tetrahydroisoquinoline Compounds for Cancer Therapy” (priority 2002, published 2008) come the findings set out here.

For test [1], the system named is C6 glioma cells. Put plainly: survival of C6 glioma cells after 96 hr treatment (Example 5). The class given is cell-based. As to conditions: Rattus norvegicus, read-out: EC50, C6 glioma cell survival.
For test [2], the system named is C6 rat glioma. Nature of the test: differential culture cytotoxicity assay, C6 glioma. As to conditions: 96 h, read-out: IC50 (μM) C6 Glioma, 96 h, percent survival vs concentration. As to the method: (§1) Normal cultured rat astrocytes and C6 rat glioma were used as a differential screen for a variety of 1,2,3,4-tetrahydroisoquinoline derivatives. […] To explore structure activity relationships (SAR) a number of 1,2,3,4-tetrahydroisoquinolines 2, 4, 5, 7, and 8 were synthesized and tested for antiglioma activity.
(§2) The astrocytes primary culture was derived from neonatal (4-8 days postpartum) rat pups as described by Geisert et al. The primary cultures were prepared as per McCarthy et al. Briefly, the rat pups were anesthetized on ice, decapitated, and the brains were removed. The cerebral cortex was removed, stripped of the meninges, and cut into small pieces of approximately 1 mm^2. The tissue was placed in 0.1% trypsin for 15 min and gently pipetted to produce a single cell suspension. The cell suspension was then rinsed in media and transferred to culture flasks. […]
(§3) The experimental treatment was the incubation of the cells with test compound for 96 h at 37° C., 5% CO2. The cells were fixed with 4% formaldehyde, stained with 0.1% cresylecth violet stain, and quantitated as per Wagner et a. […]
(§4) The cytotoxic character of each compound was reported as the percent survival, calculated as the average A560 for treated cells divided by A560 of untreated (negative control) cells, and expressed as a percentage. […]

Test [3] concerns normal cultured rat astrocytes. Nature of the test: differential culture cytotoxicity assay, normal astrocytes. The class given is cell-based. As to conditions: Astrocyte, 96 h, percent survival vs concentration. As to the method:
as §1, §2, §3, §4

Structures are written as SMILES.

One may read the EC50 as the midpoint of the concentration-response curve. Regarding `Cl.Oc1cc2c(cc1O)C(Cc1ccc(-c3ccccc3)cc1)NCC2` (racemic) [MMGS-155], in test [1], the EC50 is 2300 ± 770 nM. The IC50 in test [2] was approximately 2.6 µM; in test [3] it was approximately 29 µM.
